{"source": "PubChem BioAssay AID504332", "about": "(National Center for Advancing Translational Sciences (NCATS), 2011)", "note": "About 31,000 (8.9%) of roughly 350,000 compounds were called active. Inconclusive results, whose numbers are uncertain, are shown with a selection of clear calls. The call rests on the fitted dose curve; in most records, active means well fitted inhibition curve with a large enough effect; inconclusive means small, poorly fitted or top-dose-only effect; inactive means no such curve, though single readings can be large or run the other way. Where the call is inconclusive, the potency comes from a doubtful curve fit. On the % scale 0 is the no-effect control and ±100 the full control effect; potency means the concentration at half of the fitted maximal effect; tags describe the fitted curve by direction and shape.", "data": [{"target": "Histone-lysine N-methyltransferase EHMT2 (Homo sapiens) (UniProt Q96KQ7)", "sequence (Q96KQ7 whole entry, looked up)": "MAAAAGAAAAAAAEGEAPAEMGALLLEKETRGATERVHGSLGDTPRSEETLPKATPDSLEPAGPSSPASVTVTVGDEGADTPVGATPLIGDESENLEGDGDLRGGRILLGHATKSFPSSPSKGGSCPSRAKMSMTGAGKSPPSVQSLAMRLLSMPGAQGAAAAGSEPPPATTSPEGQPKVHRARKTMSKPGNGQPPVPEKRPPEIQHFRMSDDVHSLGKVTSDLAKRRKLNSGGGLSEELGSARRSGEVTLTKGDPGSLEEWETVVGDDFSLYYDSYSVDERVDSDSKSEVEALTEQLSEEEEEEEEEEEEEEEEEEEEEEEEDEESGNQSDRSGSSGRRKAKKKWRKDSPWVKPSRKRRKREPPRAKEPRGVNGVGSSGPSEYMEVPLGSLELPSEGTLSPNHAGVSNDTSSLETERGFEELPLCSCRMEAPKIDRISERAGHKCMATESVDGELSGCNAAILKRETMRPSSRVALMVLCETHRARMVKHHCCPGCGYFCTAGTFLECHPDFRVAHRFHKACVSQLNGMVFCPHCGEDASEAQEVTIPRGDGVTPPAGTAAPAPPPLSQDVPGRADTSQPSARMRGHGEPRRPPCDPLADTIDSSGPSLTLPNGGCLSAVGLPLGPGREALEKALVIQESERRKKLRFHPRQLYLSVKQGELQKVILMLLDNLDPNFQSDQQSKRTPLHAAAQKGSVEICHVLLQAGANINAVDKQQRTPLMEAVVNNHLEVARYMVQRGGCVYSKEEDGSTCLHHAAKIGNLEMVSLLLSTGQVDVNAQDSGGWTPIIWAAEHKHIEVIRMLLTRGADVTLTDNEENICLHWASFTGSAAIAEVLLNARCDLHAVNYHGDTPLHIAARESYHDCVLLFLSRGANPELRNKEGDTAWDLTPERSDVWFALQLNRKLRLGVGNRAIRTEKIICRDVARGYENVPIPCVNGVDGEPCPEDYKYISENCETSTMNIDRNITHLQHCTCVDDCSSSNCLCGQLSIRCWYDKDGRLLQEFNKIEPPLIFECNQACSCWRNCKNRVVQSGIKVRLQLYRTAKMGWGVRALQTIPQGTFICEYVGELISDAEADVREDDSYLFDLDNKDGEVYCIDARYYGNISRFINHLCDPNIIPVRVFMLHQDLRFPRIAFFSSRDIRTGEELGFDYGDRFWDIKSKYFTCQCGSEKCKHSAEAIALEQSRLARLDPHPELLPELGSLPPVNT", "test": "qHTS Assay for Inhibitors of Histone Lysine Methyltransferase G9a; further: nearly all actives have a fitted effect of over 75% in size", "details": "G9a H3K9 monomethylation, AlphaScreen, 2 h; activity, negative = inhibition: at 59 µM (top of the series) unless noted", "summary_of_the_method": "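AlphaScreen detection with an anti-monomethyl H3K9 antibody quantified product after a 2 h room-temperature reaction containing 500 nM biotinylated H3K9 peptide, 20 µM SAM and 20 nM enzyme, which had been preincubated 15 min with compound.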", "values": [{"smiles": "CCCCn1c(N)c(N(Cc2ccccc2OC)C(=O)c2cc(=O)[nH]c3ccccc23)c(=O)[nH]c1=O", "Potency": "active: 35.5 µM"}, {"smiles": "COc1ccc(C)cc1NC(=O)CN1CCN(c2ccccn2)CC1", "Potency": "inactive"}, {"smiles": "CCOC(=O)c1cc(-c2ccccc2)n(CCC(=O)N2CCN(c3ccc(OC)cc3)CC2)c1C", "Potency": "inconclusive: 25.1 µM [inhibitor, single point]"}, {"smiles": "COc1ccccc1-c1nc(C#N)c(N2CC(C)CC(C)C2)o1", "note": "(stereo not given)", "Potency": "inconclusive: 7.94 µM [inhibitor, partial curve, poor fit]"}, {"smiles": "Cc1[nH]nc(N=CC2=C(O)CC(c3ccco3)CC2=O)c1-c1ccccc1", "note": "(stereo not given)", "Potency": "inconclusive: 25.1 µM [inhibitor, single point]"}, {"smiles": "COC(=O)c1c(N2C(=O)[C@H]3[C@@H](C2=O)[C@]2(C(=O)Nc4ccccc42)N2CCC[C@@H]32)sc(C)c1C", "Potency": "inconclusive: 79.4 µM [inhibitor, partial curve, poor fit]"}, {"smiles": "COc1ccccc1CNC(=O)c1ccc(C)c(-n2cnc3cccnc32)c1", "Potency": "inactive"}, {"smiles": "O=C(O)c1ccc(N2C(=O)CC(N3CCC(c4nc5ccccc5[nH]4)CC3)C2=O)cc1", "note": "(stereo not given)", "Potency": "inconclusive: 1 µM [inhibitor, full curve, poor fit]"}, {"smiles": "CC1(C)CC(=O)C(N=Nc2c(Cl)cc(Cl)cc2Cl)=C(O)C1", "Potency": "inactive"}, {"smiles": "CCOc1ccc(NC(=O)Cn2c(C)ccc(C#N)c2=O)cc1", "Potency": "inactive"}, {"smiles": "CC(C)n1cnc2cc(NCc3ccco3)ccc21", "Potency": "inconclusive: 1.78 µM [inhibitor, full curve, poor fit]"}, {"smiles": "O=C(NCCc1csc(-c2cccnc2)n1)c1cccc(C(F)(F)F)c1", "Potency": "inactive"}, {"smiles": "O=C(NCc1cccs1)[C@@H]1CSC2c3ccccc3C(=O)N21", "note": "(stereo not given in full)", "Potency": "inconclusive: 89.1 µM [inhibitor, single point]"}, {"smiles": "Cc1[nH]c(-c2ccc(F)cc2)cc1C(=O)N1CCN(c2ccccc2)CC1", "Potency": "active: 50.1 µM"}, {"smiles": "Cc1nn(C)c(C)c1S(=O)(=O)NCCc1ccc(Cl)cc1", "Potency": "inactive"}, {"smiles": "Brc1cc2c(cc1COc1ccc(-c3nn[nH]n3)cc1)OCO2", "Potency": "inconclusive: 28.2 µM [inhibitor, single point]"}, {"smiles": "COc1cccc(-c2nc3c(c(=O)[nH]c(=O)n3Cc3ccccc3)n2CCO)c1OC(F)F", "Potency": "inactive"}, {"smiles": "Cc1nnc(N/N=C/c2c(Cl)cccc2Cl)n1N", "Potency": "inactive"}, {"smiles": "CCOC(=O)C1CCN(C(=O)CCNC(=O)c2cc(OC)c(OC)c(OC)c2)CC1", "Potency": "inconclusive: 89.1 µM [inhibitor, partial curve, poor fit]"}, {"smiles": "COc1ccc(NS(=O)(=O)c2nnc(NC(=O)c3ccccc3F)s2)cc1", "Potency": "inactive"}, {"smiles": "CCOc1cc(S(=O)(=O)n2ccnc2)ccc1Cl", "Potency": "inconclusive: 56.2 µM [inhibitor, partial curve, poor fit]"}, {"smiles": "CS(=O)(=O)N(CC(=O)N1CCN(c2ccccc2)CC1)c1cc(C(F)(F)F)ccc1Cl", "Potency": "inactive"}, {"smiles": "COc1ccnc2c1c(=O)n(Cc1cccc(F)c1)c(=O)n2C", "Potency": "inactive"}, {"smiles": "COc1ccccc1N1C(=O)CC(Nc2ccc(N3CCOCC3)cc2)C1=O", "note": "(stereo not given)", "Potency": "inconclusive: 6.31 µM [inhibitor, single point]"}, {"smiles": "Cc1ccc(N2C(=O)c3cccc4c([N+](=O)[O-])ccc(c34)C2=O)c2cccnc12", "Potency": "inconclusive: 2.51 µM [inhibitor, partial curve, poor fit]"}, {"smiles": "O=C(c1ccccc1)c1ccc(OCC(=O)N2CCOCC2)cc1", "Potency": "inactive"}, {"smiles": "O=C(CC1C(=O)NCCN1Cc1ccc(Cl)c(F)c1)NCC1CCOCC1", "note": "(stereo not given)", "activity, negative = inhibition": "inconclusive: -63.6% [inhibitor]"}, {"smiles": "COC(=O)C1CCN(C(=O)CCC2CCCCC2)CC1", "Potency": "active: 7.08 µM"}, {"smiles": "COc1ccc(NS(=O)(=O)c2ccc3oc(SCC(N)=O)nc3c2)cc1", "Potency": "inactive"}, {"smiles": "CN(C)Cc1ccc(O)c(CCc2ccccc2)n1", "Potency": "inconclusive: 39.8 µM [inhibitor, single point]"}, {"smiles": "CC(C)Oc1ccc(C2c3c(oc4ccccc4c3=O)C(=O)N2CCCN2CCOCC2)cc1", "note": "(stereo not given)", "activity, negative = inhibition": "inconclusive: -89.1% [inhibitor]"}, {"smiles": "O=C1CC(c2ccc(Cl)cc2)n2nc(N3C(=O)c4ccccc4C3=O)nc2N1", "note": "(stereo not given)", "Potency": "inactive"}, {"smiles": "Cc1ccc(-c2csc(C3=C(O)CN(NC(=O)c4ccc([N+](=O)[O-])cc4)C3=N)n2)cc1", "Potency": "inconclusive: 44.7 µM [inhibitor, partial curve, poor fit]"}, {"smiles": "Cc1ccsc1C(=O)N1CCN(S(=O)(=O)c2cccs2)CC1", "Potency": "inactive"}, {"smiles": "O=C(O)Cn1c(P(=O)(O)c2ccccc2)nc2ccccc21", "Potency": "active: 31.6 µM"}, {"smiles": "COc1ccccc1N1CCN(CCCCN2C(=O)C3CCCCN3C2=O)CC1", "note": "(stereo not given)", "activity, negative = inhibition": "inactive: 21.8% [at 0.501 µM]"}, {"smiles": "CCC(=O)Nc1ccc(NC(=O)c2ccc3c(c2)OCO3)cc1", "Potency": "inconclusive: 0.708 µM [inhibitor, full curve, poor fit]"}, {"smiles": "COC(=O)C1CN(C(=O)C(C)Oc2ccc(C)c(C)c2)c2ccccc2O1", "note": "(stereo not given)", "Potency": "inactive"}, {"smiles": "Cc1ccc(CNc2nc3c(S(=O)(=O)c4ccccc4)nnn3c3ccsc23)cc1", "Potency": "inactive"}, {"smiles": "CO/N=C(/C(=O)N[C@@H]1C(=O)N2C(C(=O)O)=CCS[C@H]12)c1csc(N)n1", "Potency": "inconclusive: 1.12 µM [inhibitor, partial curve, poor fit]"}, {"smiles": "O=C(/C=C/c1cn(CC(O)CN2CCCCCC2)c2ccccc12)c1ccccc1", "note": "(stereo not given)", "Potency": "inconclusive: 25.1 µM [inhibitor, partial curve, poor fit]"}, {"smiles": "C=CCNC(=O)C(C#N)c1nc2ccccc2nc1N1CCN(Cc2ccccc2)CC1", "note": "(stereo not given)", "Potency": "inconclusive: 1.26 µM [inhibitor, full curve, poor fit]"}, {"smiles": "CCCOc1ccc(C(=O)Nc2ccc(N(C)C)cc2)cc1", "Potency": "inconclusive: 0.398 µM [inhibitor, full curve, poor fit]"}, {"smiles": "Cc1ccccc1C(=O)NC(=S)Nc1ccc(S(=O)(=O)N2CCOCC2)cc1", "Potency": "inconclusive: 14.1 µM [inhibitor, partial curve, poor fit]"}, {"smiles": "COc1ccc(-n2ccnc(NCCc3ccc(S(N)(=O)=O)cc3)c2=O)cc1", "Potency": "inconclusive: 31.6 µM [inhibitor, partial curve, poor fit]"}, {"smiles": "O=C1C2C3C=CC(C4CC34)C2C(=O)N1Cc1ccco1", "note": "(stereo not given)", "Potency": "inconclusive: 89.1 µM [inhibitor, single point]"}, {"smiles": "CC(=O)N/N=C(\\C)CC(=O)Nc1ccc2c(c1)OCCO2", "Potency": "active: 44.7 µM"}, {"smiles": "Cc1nnc(SC(C)C(=O)NC2CCCc3ccccc32)n1-c1ccccc1", "note": "(stereo not given)", "Potency": "inconclusive: 70.8 µM [inhibitor, single point]"}, {"smiles": "Cn1cccc1/C=C1\\SC(=O)N(c2ccccc2)C1=O", "Potency": "inactive"}, {"smiles": "COc1ccc(-n2ncc3c2CC(C)(C)CC3NC(=O)c2ccc(OC)o2)cc1", "note": "(stereo not given)", "Potency": "inactive"}, {"smiles": "c1ccc(-c2ccc(-c3cnc4n3CCCCC4)cc2)cc1", "Potency": "active: 17.8 µM"}, {"smiles": "O=C(COC(=O)CNC(=O)C1CCCCC1)Nc1cccc(F)c1", "activity, negative = inhibition": "inactive: -1.37% [at 12.7 µM]"}, {"smiles": "COC(=O)CCN1CCc2cc(N=Nc3ccc([N+](=O)[O-])cc3)ccc21", "activity, negative = inhibition": "inconclusive: -99.1% [inhibitor]"}, {"smiles": "COc1ccc(-c2c(NC(=O)c3ccco3)oc3ccccc3c2=O)cc1", "Potency": "inconclusive: 39.8 µM [inhibitor, single point]"}, {"smiles": "O=C(NC1CCCCC1)C1CC(=O)N(CCc2ccc(F)cc2)C1", "note": "(stereo not given)", "Potency": "inconclusive: 56.2 µM [inhibitor, partial curve, poor fit]"}, {"smiles": "COc1cc(/C=C(\\NC(C)=O)C(=O)Nc2cccc(O)c2)ccc1OC(C)=O", "Potency": "inconclusive: 39.8 µM [inhibitor, single point]"}, {"smiles": "COc1ccc(-n2c(C)cc(C(=O)CSc3ccc(NC(C)=O)cc3)c2C)cc1", "Potency": "inconclusive: 39.8 µM [inhibitor, single point]"}, {"smiles": "Cc1ccc(C(=O)Nn2c(C)nc3ccccc3c2=O)cc1C", "Potency": "inactive"}, {"smiles": "COc1cccc(C(=O)Nc2ccc(NC(=O)c3ccco3)nc2)c1", "Potency": "inconclusive: 7.94 µM [inhibitor, partial curve, poor fit]"}, {"smiles": "Cn1nnnc1SCC(=O)c1cccs1", "Potency": "inconclusive: 31.6 µM [inhibitor, single point]"}, {"smiles": "CSc1ncccc1C(=O)OCC(=O)c1cc(C)n(CC2CCCO2)c1C", "note": "(stereo not given)", "Potency": "inconclusive: 50.1 µM [inhibitor, partial curve, poor fit]"}, {"smiles": "COc1cccc(/C=N/c2sc(Cc3ccccc3)c(C)c2C(N)=O)c1O", "Potency": "inconclusive: 79.4 µM [inhibitor, single point]"}, {"smiles": "CCN(CC)S(=O)(=O)c1cccc(NC(=O)C2CC(=O)N(c3ccc4c(c3)OCCO4)C2)c1", "note": "(stereo not given)", "Potency": "active: 50.1 µM"}, {"smiles": "CCCCCCn1c(COc2ccccc2F)nnc1SCC(=O)N1c2ccccc2NC(=O)C1(C)C", "Potency": "inactive"}, {"smiles": "COc1ccc(Cl)cc1NC(=S)Nc1cccnc1", "Potency": "inconclusive: 79.4 µM [inhibitor, partial curve, poor fit]"}, {"smiles": "COCCNc1ncnc2ccc(-c3cccc(OC)c3)cc12", "activity, negative = inhibition": "inactive: 9.72% [at 0.501 µM]"}, {"smiles": "COc1ccc(/C=N\\Nc2ccc([N+](=O)[O-])cc2)c(C(=O)O)c1OC", "Potency": "inconclusive: 79.4 µM [inhibitor, partial curve, poor fit]"}, {"smiles": "O=C(C1CC(=O)N(c2ccc3c(c2)OCCO3)C1)N1CCN(c2ccccc2)CC1", "note": "(stereo not given)", "Potency": "inconclusive: 50.1 µM [inhibitor, partial curve]"}, {"smiles": "COc1cccc(/C=C/C(=O)c2cccc([N+](=O)[O-])c2)c1OC", "activity, negative = inhibition": "inconclusive: -60.6% [inhibitor]"}, {"smiles": "COCc1ccc(C(=O)NCC2(N3CCCCC3)CCCCC2)cc1", "Potency": "inconclusive: 89.1 µM [inhibitor, single point]"}]}]}
